Test results as given in US7722876B2 (priority 2002, dated 2010).
Where a SMILES comes first, the peptide text is derived from it.

Tested on: C.albicans UP10 cells
Conditions: read-out: IC50 (mol/l); KM and C-terminal truncation derivatives; triplicate, nonlinear regression

**Q.** Which IC50 does the source give for `CSCC[C@H](NC(=O)[C@@H](NC(=O)[C@@H](NC(=O)[C@H](CCCCN)NC(=O)[C@H](C)N)C(C)C)[C@@H](C)O)C(=O)N[C@H](C(=O)N[C@@H](CS)C(=O)N[C@@H](CO)C(=O)N[C@@H](C)C(=O)N[C@@H](CO)C(N)=O)[C@@H](C)O` [KM] (H-AKVTMTCSAS-NH2) here?
**A.** 56 nM
